Source: a collection of fitness landscapes (doi:10.1016/j.celrep.2020.107928)
In all, about 81,000 sequences were measured (“one-hybrid fitness for binding NBS DNA”: median about -0.1, highest 2% from about 0.36 on). Some of the results follow.

B1: Caulobacter ParB omega fusion; a variant is named by its letters at X, in order, B8GW30 (parent)
chain: MESVVVGEPGMSEGRRGLGRGLSALLGEVDAAPAQAPGEQLGGSREAPIEILQRNPDQPRRTFREEDLEDLSNSIREKGVLQPILVRPSPDTAGEYQIVAGERAWRAAQRAGLKTVPIMVRELDDLAVLEIGIIENVQRADLNVLEEALSYKVLMEKFERTQENIAQTIGKSXSHVANXMRLLXLPDEVQSYLVSGELTAXHARAIAAAADPVALAKQIIEGGLSVRETEALARKAPNLSAGKSKGGRPPRVKDTDTQALESDLSSVLGLDVSIDHRGSTGTLTITYATLEQLDDLCNRLTRGI

Variants of: B1
Assay: one-hybrid fitness for binding NBS DNA (the Noc-binding site; scaled: cognate 1, non-cognate 0); higher = stronger binding
Details: with NBS DNA site
Procedure, shortened: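 Fitness here means the log change in variant-to-wild-type read ratio between plasmids sequenced before and after selection. That scale was set so cognate equals 1 and non-cognate equals 0. The selection was a bacterial one-hybrid screen of Caulobacter ParB libraries, four specificity codons randomised, in E. coli USO carrying a HIS3 reporter with the site 19 bp from the promoter, grown 48 hours at 37°C on M9-minus-histidine with 0.1 mM IPTG and 5 mM 3-AT.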

Variant | one-hybrid fitness for binding NBS DNA
GQQY | ≤ 0.2
RPEY | ≤ 0.2
RYTW | ≤ 0.2
YAQM | ≤ 0.2
DTLA | ≤ 0.2
RYCY | ≤ 0.2
SIIV | ≤ 0.2
DPTM | ≤ 0.2
WSSV | ≤ 0.2
RQIQ | ≤ 0.2
WTDE | ≤ 0.2
VNNR | ≤ 0.2
SDFC | ≤ 0.2
DSTS | ≤ 0.2
PEKS | ≤ 0.2
ARIR | ≤ 0.2
KRMD | ≤ 0.2
RRYV | 0.254
LHSY | ≤ 0.2
AMEV | ≤ 0.2
NSQT | ≤ 0.2
HHRT | ≤ 0.2
IGKV | ≤ 0.2
LQAR | ≤ 0.2

Variant | one-hybrid fitness for binding NBS DNA
PYII | ≤ 0.2
DLWA | ≤ 0.2
NWPD | ≤ 0.2
ETVF | ≤ 0.2
RITI | ≤ 0.2
KEHG | ≤ 0.2
LSMW | ≤ 0.2
EVKL | ≤ 0.2
TSPG | ≤ 0.2
KRDK | ≤ 0.2
HKNW | ≤ 0.2
HLCW | ≤ 0.2
HPPP | ≤ 0.2
APDG | ≤ 0.2
LQPC | ≤ 0.2
DAAA | ≤ 0.2
PPTT | ≤ 0.2
SFWF | ≤ 0.2
HAWC | ≤ 0.2
LYKN | ≤ 0.2
SINR | ≤ 0.2
QVRR | 0.77
RCRW | ≤ 0.2
IMAC | ≤ 0.2

Variant | one-hybrid fitness for binding NBS DNA
HMCS | ≤ 0.2
CAPC | ≤ 0.2
SPQA | ≤ 0.2
NHND | ≤ 0.2
QGGL | ≤ 0.2
PCES | ≤ 0.2
FISR | ≤ 0.2
DPWK | ≤ 0.2
DMTN | ≤ 0.2
FETR | ≤ 0.2
DSPS | ≤ 0.2
VAWC | ≤ 0.2
SGSC | ≤ 0.2
MPRE | ≤ 0.2
VMIM | ≤ 0.2
YWVI | ≤ 0.2
VALC | ≤ 0.2
LSIE | ≤ 0.2
FAIM | ≤ 0.2
KPLE | ≤ 0.2
QITQ | ≤ 0.2
LELT | ≤ 0.2
CHMT | ≤ 0.2
QCTY | 0.225

Variant | one-hybrid fitness for binding NBS DNA
GMPC | ≤ 0.2
VYNA | ≤ 0.2
WNKR | ≤ 0.2
RSVQ | ≤ 0.2
CAGA | ≤ 0.2
LGPR | ≤ 0.2
RNAD | ≤ 0.2
CPHL | ≤ 0.2
GASG | ≤ 0.2
QNHM | ≤ 0.2
PMLC | ≤ 0.2
VLMT | ≤ 0.2
YSYW | ≤ 0.2
AAPR | ≤ 0.2
TVPE | ≤ 0.2
TEVG | ≤ 0.2
NTHV | ≤ 0.2
SSVK | ≤ 0.2
PNAF | ≤ 0.2
ENNR | ≤ 0.2
TMSC | ≤ 0.2
IRAK | ≤ 0.2
TFWC | ≤ 0.2
FWMG | ≤ 0.2

Variant | one-hybrid fitness for binding NBS DNA
AAHF | ≤ 0.2
RMPI | ≤ 0.2
RFTS | 0.285
AEGS | ≤ 0.2
AVDN | ≤ 0.2
LWLG | ≤ 0.2
CSAL | ≤ 0.2
TRFG | ≤ 0.2
TRRH | 0.292
GLTG | ≤ 0.2
TPDR | ≤ 0.2
RHKT | 0.578
MLMI | ≤ 0.2
AMSW | ≤ 0.2
QTGH | 0.424
WVTR | ≤ 0.2
RKTW | ≤ 0.2
ANEG | ≤ 0.2
CGNT | ≤ 0.2
NIDR | ≤ 0.2
QCYK | ≤ 0.2
CHRR | ≤ 0.2
NCRF | ≤ 0.2
WHDC | ≤ 0.2

Variant | one-hybrid fitness for binding NBS DNA
SQCM | ≤ 0.2
RMCM | ≤ 0.2
TISD | ≤ 0.2
HDDY | ≤ 0.2
QHHD | ≤ 0.2
ILLT | ≤ 0.2
TLTV | ≤ 0.2
VERF | ≤ 0.2
SNKI | ≤ 0.2
VERY | ≤ 0.2
WNGI | ≤ 0.2
QFLW | ≤ 0.2
TYLN | ≤ 0.2
TRLH | ≤ 0.2
SYHR | ≤ 0.2
DNME | ≤ 0.2
LNWH | ≤ 0.2
MLSY | ≤ 0.2
LRKY | ≤ 0.2
RWNV | ≤ 0.2
DNTG | ≤ 0.2
HWLG | ≤ 0.2
GPCV | ≤ 0.2
THQA | ≤ 0.2

Variant | one-hybrid fitness for binding NBS DNA
GCRT | ≤ 0.2
YKLR | ≤ 0.2
CCQS | ≤ 0.2
LRFT | ≤ 0.2
CYPG | ≤ 0.2
DPVT | ≤ 0.2
QMWA | ≤ 0.2
LNCC | ≤ 0.2
KGIC | ≤ 0.2
ASFT | ≤ 0.2
AMLG | ≤ 0.2
VHCN | ≤ 0.2
CVTG | ≤ 0.2
DSSM | ≤ 0.2
TRID | ≤ 0.2
WVTQ | ≤ 0.2
FMIT | ≤ 0.2
YYRW | ≤ 0.2
NNHS | ≤ 0.2
GDYG | ≤ 0.2
AVIR | ≤ 0.2
CVTS | ≤ 0.2
SVLH | ≤ 0.2
CTVP | ≤ 0.2

Variant | one-hybrid fitness for binding NBS DNA
LTAY | ≤ 0.2
EVWM | ≤ 0.2
YRQA | ≤ 0.2
LKSK | ≤ 0.2
NQKA | ≤ 0.2
QCET | 0.352
LWTM | ≤ 0.2
AGHP | ≤ 0.2
IVKR | ≤ 0.2
KWLL | ≤ 0.2
LVRV | ≤ 0.2
WRRV | ≤ 0.2
CMSW | ≤ 0.2
VMTV | ≤ 0.2
SMKL | ≤ 0.2
PTNI | ≤ 0.2
PTHG | ≤ 0.2
WRLF | ≤ 0.2
ERGG | ≤ 0.2
YPNY | ≤ 0.2
MTDK | ≤ 0.2
WRLM | ≤ 0.2
LRPE | ≤ 0.2
VDAL | ≤ 0.2

Variant | one-hybrid fitness for binding NBS DNA
NTSR | ≤ 0.2
QRGS | 0.7
LDAK | ≤ 0.2
TMAF | ≤ 0.2
RKRH | 0.429
GALL | ≤ 0.2
NQHP | ≤ 0.2
DTEM | ≤ 0.2
WTTN | ≤ 0.2
LNKV | ≤ 0.2
NTNK | ≤ 0.2
PTNP | ≤ 0.2
STSL | ≤ 0.2
GSTH | ≤ 0.2
THCQ | ≤ 0.2
GMND | ≤ 0.2
HPQF | ≤ 0.2
SAIP | ≤ 0.2
PRYR | ≤ 0.2
CFPD | ≤ 0.2
FHCR | ≤ 0.2
GHPL | ≤ 0.2
KVSR | ≤ 0.2
PCQS | ≤ 0.2

Variant | one-hybrid fitness for binding NBS DNA
DPGR | ≤ 0.2
VQPC | ≤ 0.2
RTCD | ≤ 0.2
ALWL | ≤ 0.2
PGKQ | ≤ 0.2
LLKR | ≤ 0.2
LCRY | ≤ 0.2
ALAA | ≤ 0.2
RPYY | ≤ 0.2
YDVC | ≤ 0.2
HGKM | ≤ 0.2
VECS | ≤ 0.2
SRVC | ≤ 0.2
SINW | ≤ 0.2
PWAV | ≤ 0.2
TTSV | ≤ 0.2
RARP | ≤ 0.2
KSKI | ≤ 0.2
QLHL | ≤ 0.2
SPNC | ≤ 0.2
ILHC | ≤ 0.2
TCDR | ≤ 0.2
TMGF | ≤ 0.2
RWRK | ≤ 0.2

Variant | one-hybrid fitness for binding NBS DNA
MKSC | ≤ 0.2
GSDL | ≤ 0.2
YQKT | ≤ 0.2
KREP | ≤ 0.2
QHRL | 0.221
PISS | ≤ 0.2
HPRC | ≤ 0.2
PHAP | ≤ 0.2
KYNN | ≤ 0.2
SQMC | ≤ 0.2
QWSL | ≤ 0.2
TTEG | ≤ 0.2
YAVV | ≤ 0.2
GAKN | ≤ 0.2
LQAD | ≤ 0.2
IPMG | ≤ 0.2
TACI | ≤ 0.2
AGPF | ≤ 0.2
AIAC | ≤ 0.2
KTEN | ≤ 0.2
HYQR | ≤ 0.2
FMRC | ≤ 0.2
WNPL | ≤ 0.2
WLST | ≤ 0.2

Variant | one-hybrid fitness for binding NBS DNA
KHGP | ≤ 0.2
NNCE | ≤ 0.2
DSDS | ≤ 0.2
YIIS | ≤ 0.2
MGHL | ≤ 0.2
QDMD | ≤ 0.2
PAYG | ≤ 0.2
PDLV | ≤ 0.2
YSED | ≤ 0.2
VLGE | ≤ 0.2
HLTM | ≤ 0.2
HFPA | ≤ 0.2
ELWL | ≤ 0.2
NPNM | ≤ 0.2
GLYG | ≤ 0.2
PLEL | ≤ 0.2
HWSC | ≤ 0.2
PTCA | ≤ 0.2
WLIT | ≤ 0.2
DTHG | ≤ 0.2
PICF | ≤ 0.2
PTPW | ≤ 0.2
QGES | ≤ 0.2
NHGS | ≤ 0.2

Variant | one-hybrid fitness for binding NBS DNA
RTVR | 0.416
PTWQ | ≤ 0.2
QCPT | 0.382
AAPK | ≤ 0.2
VCRY | ≤ 0.2
HIYP | ≤ 0.2
GCAS | ≤ 0.2
GATM | ≤ 0.2
RILC | ≤ 0.2
GLSV | ≤ 0.2
NFRG | ≤ 0.2
AEST | ≤ 0.2
GPPE | ≤ 0.2
FWKN | ≤ 0.2
TVVT | ≤ 0.2
QSDW | ≤ 0.2
DVQR | ≤ 0.2
SWMA | ≤ 0.2
